Laboratory results as given in publication PMC12820563.
This is one part of the list. The list includes weakly bound sequences.

target: T1, MBP-FoxP3dN (UniProt Q99JB6); assay: PD-seq (MBP pull-down with sequencing); conditions: 20 mM Tris-HCl pH 7.5, 100 mM NaCl, 1.5 mM MgCl2, 0.4 uM protein, 0.1 uM dsDNA library, 30 min, room temperature, amylose pull-down; high values mean tight binding; double strand, one strand shown
T1 sequence: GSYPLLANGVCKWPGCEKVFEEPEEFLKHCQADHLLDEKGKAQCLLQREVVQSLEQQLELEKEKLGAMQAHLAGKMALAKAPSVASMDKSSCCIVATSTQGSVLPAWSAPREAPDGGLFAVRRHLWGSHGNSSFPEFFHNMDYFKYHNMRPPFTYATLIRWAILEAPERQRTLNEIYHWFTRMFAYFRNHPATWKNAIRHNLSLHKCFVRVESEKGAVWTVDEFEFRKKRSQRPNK

| Sequence | binding signal (RPM ratio (pull-down/input)) |
| --- | --- |
| GATGATTGTTCTCCCAGCTGATGAATTAGCTAGCTCGAGTAAACAAATTTTCCTAATCTTTCTGTTCAAGCGCCATCTAC | 0.53 |
| GATGATTGTTCTCCCAGCTGATGAATTACAATTGTCGAGTAAACAAATTTTCCTAATCTTTCTGTTCAAGCGCCATCTAC | 1.17 |
| GATGATTGTTCTCCCAGCTGATGAATTGTAGTTTTCGAGTAAACAAATTTTCCTAATCTTTCTGTTCAAGCGCCATCTAC | 1.66 |
| GATGATTGTTCTCCCAGCTGATGAATTACAAGTGTCGAGTAAACAAATTTTCCTAATCTTTCTGTTCAAGCGCCATCTAC | 0.639 |
| GATGATTGTTCTCCCAGCTGATGAATTGTAAGATTCGAGTAAACAAATTTTCCTAATCTTTCTGTTCAAGCGCCATCTAC | 0.321 |
| GATGATTGTTCTCCCAGCTGATGAATTGGAGTTATCGAGTAAACAAATTTTCCTAATCTTTCTGTTCAAGCGCCATCTAC | 0.699 |
| GATGATTGTTCTCCCAGCTGATGAATTGTAATTTTCGAGTAAACAAATTTTCCTAATCTTTCTGTTCAAGCGCCATCTAC | 0.962 |
| GATGATTGTTCTCCCAGCTGATGAATTTACAAGGTCGAGTAAACAAATTTTCCTAATCTTTCTGTTCAAGCGCCATCTAC | 0.347 |
| GATGATTGTTCTCCCAGCTGATGAATTAGCACGGTCGAGTAAACAAATTTTCCTAATCTTTCTGTTCAAGCGCCATCTAC | 0.294 |
| GATGATTGTTCTCCCAGCTGATGAATTTTCCGTATCGAGTAAACAAATTTTCCTAATCTTTCTGTTCAAGCGCCATCTAC | 0.355 |
| GATGATTGTTCTCCCAGCTGATGAATTATATTTCTCGAGTAAACAAATTTTCCTAATCTTTCTGTTCAAGCGCCATCTAC | 1.24 |
| GATGATTGTTCTCCCAGCTGATGAATTAGCTATGTCGAGTAAACAAATTTTCCTAATCTTTCTGTTCAAGCGCCATCTAC | 1.2 |
| GATGATTGTTCTCCCAGCTGATGAATTCGCTCTGTCGAGTAAACAAATTTTCCTAATCTTTCTGTTCAAGCGCCATCTAC | 0.305 |
| GATGATTGTTCTCCCAGCTGATGAATTCTCGACGTCGAGTAAACAAATTTTCCTAATCTTTCTGTTCAAGCGCCATCTAC | 0.26 |
| GATGATTGTTCTCCCAGCTGATGAATTGGGTGCATCGAGTAAACAAATTTTCCTAATCTTTCTGTTCAAGCGCCATCTAC | 1.52 |
| GATGATTGTTCTCCCAGCTGATGAATTATTTTCCTCGAGTAAACAAATTTTCCTAATCTTTCTGTTCAAGCGCCATCTAC | 0.995 |

| Sequence | binding signal (RPM ratio (pull-down/input)) |
| --- | --- |
| GATGATTGTTCTCCCAGCTGATGAATTCAGTCCTTCGAGTAAACAAATTTTCCTAATCTTTCTGTTCAAGCGCCATCTAC | 0.344 |
| GATGATTGTTCTCCCAGCTGATGAATTATTGTACTCGAGTAAACAAATTTTCCTAATCTTTCTGTTCAAGCGCCATCTAC | 0.792 |
| GATGATTGTTCTCCCAGCTGATGAATTAAAGTAATCGAGTAAACAAATTTTCCTAATCTTTCTGTTCAAGCGCCATCTAC | 0.578 |
| GATGATTGTTCTCCCAGCTGATGAATTCATAATTTCGAGTAAACAAATTTTCCTAATCTTTCTGTTCAAGCGCCATCTAC | 0.381 |
| GATGATTGTTCTCCCAGCTGATGAATTTTGAAGTTCGAGTAAACAAATTTTCCTAATCTTTCTGTTCAAGCGCCATCTAC | 0.363 |
| GATGATTGTTCTCCCAGCTGATGAATTAGCCTGATCGAGTAAACAAATTTTCCTAATCTTTCTGTTCAAGCGCCATCTAC | 0.321 |
| GATGATTGTTCTCCCAGCTGATGAATTCACGTGGTCGAGTAAACAAATTTTCCTAATCTTTCTGTTCAAGCGCCATCTAC | 0.36 |
| GATGATTGTTCTCCCAGCTGATGAATTTGAGCGCTCGAGTAAACAAATTTTCCTAATCTTTCTGTTCAAGCGCCATCTAC | 0.386 |
| GATGATTGTTCTCCCAGCTGATGAATTCCTTCCGTCGAGTAAACAAATTTTCCTAATCTTTCTGTTCAAGCGCCATCTAC | 0.198 |
| GATGATTGTTCTCCCAGCTGATGAATTATCGAGTTCGAGTAAACAAATTTTCCTAATCTTTCTGTTCAAGCGCCATCTAC | 0.427 |
| GATGATTGTTCTCCCAGCTGATGAATTGTATGTATCGAGTAAACAAATTTTCCTAATCTTTCTGTTCAAGCGCCATCTAC | 4.55 |
| GATGATTGTTCTCCCAGCTGATGAATTTTTGGGTTCGAGTAAACAAATTTTCCTAATCTTTCTGTTCAAGCGCCATCTAC | 0.314 |
| GATGATTGTTCTCCCAGCTGATGAATTCCGACATTCGAGTAAACAAATTTTCCTAATCTTTCTGTTCAAGCGCCATCTAC | 1.35 |
| GATGATTGTTCTCCCAGCTGATGAATTCGTATAATCGAGTAAACAAATTTTCCTAATCTTTCTGTTCAAGCGCCATCTAC | 0.733 |
| GATGATTGTTCTCCCAGCTGATGAATTTATCATATCGAGTAAACAAATTTTCCTAATCTTTCTGTTCAAGCGCCATCTAC | 1.41 |
| GATGATTGTTCTCCCAGCTGATGAATTAACAGAGTCGAGTAAACAAATTTTCCTAATCTTTCTGTTCAAGCGCCATCTAC | 0.209 |
